The values below come from article PMC4336329 (PLoS ONE, 2015).

Hit rate of the full screen: of about 310,000 compounds, about 2,200 (0.71%) showed an effect of 50% or more. The effect is printed as a negative number. The list shows a part of the results.

The assay deals with human ether-à-go-go-related gene (hERG) potassium channel (human, UniProt Q12809). The assay can be described thus: primary screen, population patch clamp on CHO cells stably expressing hERG.
human ether-à-go-go-related gene (hERG) potassium channel, sequence (Q12809 whole entry, looked up): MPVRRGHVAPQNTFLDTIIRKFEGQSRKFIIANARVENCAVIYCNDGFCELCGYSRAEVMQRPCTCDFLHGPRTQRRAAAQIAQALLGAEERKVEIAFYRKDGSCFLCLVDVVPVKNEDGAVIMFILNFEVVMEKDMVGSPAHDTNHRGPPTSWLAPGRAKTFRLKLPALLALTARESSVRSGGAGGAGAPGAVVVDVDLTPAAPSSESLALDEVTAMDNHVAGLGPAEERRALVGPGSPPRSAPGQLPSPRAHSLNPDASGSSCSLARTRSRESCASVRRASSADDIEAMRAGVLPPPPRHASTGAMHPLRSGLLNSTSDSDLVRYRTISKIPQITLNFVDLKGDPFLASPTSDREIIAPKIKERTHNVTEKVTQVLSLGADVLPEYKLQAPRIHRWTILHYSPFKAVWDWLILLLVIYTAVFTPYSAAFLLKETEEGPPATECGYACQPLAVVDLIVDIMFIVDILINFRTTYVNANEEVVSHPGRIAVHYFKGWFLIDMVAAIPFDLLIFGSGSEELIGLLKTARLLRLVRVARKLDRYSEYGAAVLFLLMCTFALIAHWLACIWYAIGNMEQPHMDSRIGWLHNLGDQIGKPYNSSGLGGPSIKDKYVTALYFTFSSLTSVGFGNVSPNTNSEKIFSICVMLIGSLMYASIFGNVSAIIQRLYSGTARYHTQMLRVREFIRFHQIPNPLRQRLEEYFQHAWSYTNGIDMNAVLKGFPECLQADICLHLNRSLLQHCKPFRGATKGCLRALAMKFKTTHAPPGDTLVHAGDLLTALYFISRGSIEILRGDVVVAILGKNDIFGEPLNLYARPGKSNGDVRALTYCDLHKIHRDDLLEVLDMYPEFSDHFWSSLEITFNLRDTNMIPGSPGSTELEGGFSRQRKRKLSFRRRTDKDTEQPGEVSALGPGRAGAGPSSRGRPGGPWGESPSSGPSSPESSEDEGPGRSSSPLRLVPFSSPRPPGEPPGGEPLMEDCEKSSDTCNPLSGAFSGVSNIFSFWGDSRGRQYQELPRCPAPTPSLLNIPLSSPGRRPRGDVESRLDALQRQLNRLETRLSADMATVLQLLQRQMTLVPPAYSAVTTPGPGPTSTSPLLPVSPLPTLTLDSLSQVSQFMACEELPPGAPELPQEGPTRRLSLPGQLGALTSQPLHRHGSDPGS
Turning to `COC(=O)c1ccc(OCCOCCOc2cccc3ccc(C)nc23)cc1`, the “hERG current change (%, negative = inhibition) at 1uM” value amounted to 6.16%.

As for `COc1cccc(-c2nc(CS(=O)(=O)CC(=O)Nc3ccccc3Cl)c(C)o2)c1`, the “hERG current change (%, negative = inhibition) at 1uM” value amounted to 9.58%.

On to `CC(Cc1ccccc1)NC(=O)/C=C/C(=O)O` (stereo not drawn), for which the “hERG current change (%, negative = inhibition) at 1uM” value is on record as 2.24%.

Consider `Cc1cccc(C(C)C)c1NC(=O)C1CCN(S(=O)(=O)c2ccccc2)CC1`, for which the “hERG current change (%, negative = inhibition) at 1uM” value was 11%.

As to `N#Cc1ccc(OCC(=O)N2CCN(S(=O)(=O)c3cccs3)CC2)cc1`, the “hERG current change (%, negative = inhibition) at 1uM” value was -54.7%.

For `Cc1cc(C(=O)NCC(=O)OC(C(=O)Nc2cc(C(F)(F)F)ccc2Cl)c2ccccc2)ccc1[N+](=O)[O-]` (stereo not drawn), the “hERG current change (%, negative = inhibition) at 1uM” value is listed as 5.04%.

In the case of `CC(C)c1cc(C(=O)OCC(=O)N2CCN(C(=O)c3ccco3)CC2)c(O)c(C(C)C)c1`, the “hERG current change (%, negative = inhibition) at 1uM” value is on record as 7.26%.

In the case of `COC(=O)c1ccc(-c2ccc(F)cc2)nc1C`, the “hERG current change (%, negative = inhibition) at 1uM” value was 11.6%.

As to `CC(C)(C)N(Cc1ccccc1)C(=O)CCc1ccccc1`, the “hERG current change (%, negative = inhibition) at 1uM” value amounted to 18.1%.

Take `CC(C)[C@H]1CC[C@@H](C)C(C(=O)c2ccccc2)C1=O` (stereo partly drawn): the “hERG current change (%, negative = inhibition) at 1uM” value was determined as 6.36%.

On to `Nc1nnc(SC2CCCC2)s1`, for which the “hERG current change (%, negative = inhibition) at 1uM” value was found to be 12.1%.

As for `COCCN(C(=O)COC(=O)C1=COCCO1)c1c(N)n(Cc2ccccc2)c(=O)[nH]c1=O`, the “hERG current change (%, negative = inhibition) at 1uM” value amounted to 6.95%.

`O=S(=O)(NC1CCCCC1)OCC(Cl)(Cl)Cl`: the “hERG current change (%, negative = inhibition) at 1uM” value stood at 5.01%.

Consider `Cc1ccc(S(=O)(=O)Nc2cc(=O)[nH]c(SCC(=O)Nc3ccccc3C(F)(F)F)n2)cc1`, for which the “hERG current change (%, negative = inhibition) at 1uM” value was determined as 14.6%.

Turning to `O=C(CS(=O)(=O)c1ccccc1)Nc1nccs1`, the “hERG current change (%, negative = inhibition) at 1uM” value amounted to 20.7%.

Consider `Cn1c(=O)c2c(n(C)c1=O)=NC1(CCCCC1)ON=2`, for which the “hERG current change (%, negative = inhibition) at 1uM” value is -1.09%.

For `Cc1ccc(S(=O)(=O)NC2CCSC2=O)cc1C` (stereo not drawn), the “hERG current change (%, negative = inhibition) at 1uM” value came out at 8.47%.

In the case of `C=CCNC1=C(Cl)C(=O)N(c2ccccc2Cl)C1=O`, the “hERG current change (%, negative = inhibition) at 1uM” value came to 0.989%.

Turning to `O=S1(=O)CC(O)C(Nc2ccc(Cl)cc2)C1` (stereo not drawn), the “hERG current change (%, negative = inhibition) at 1uM” value worked out at 9.4%.

`O=C(CSc1ncnc2c1nnn2Cc1ccccc1)NC1CCCC1`: the “hERG current change (%, negative = inhibition) at 1uM” value is on record as 17.2%.

In the case of `Cc1ccc(-c2ccc(SCC(=O)NC3CCCC3)nn2)cc1`, the “hERG current change (%, negative = inhibition) at 1uM” value was determined as 18.8%.

`CC(=O)N1N=C(c2ccc(C)cc2)OC1c1ccc(Br)cc1` (stereo not drawn): the “hERG current change (%, negative = inhibition) at 1uM” value amounted to 24%.

Turning to `O=C(CC(=O)Nc1ccc(Br)cc1)Nc1ccc(Br)cc1`, the “hERG current change (%, negative = inhibition) at 1uM” value turned out to be 11.8%.

On to `COc1ccc(C2Nc3ccccc3C(=O)N2Cc2ccccc2)cc1OC` (stereo not drawn), for which the “hERG current change (%, negative = inhibition) at 1uM” value worked out at 16.2%.

Regarding `CCc1ccc(N2C(=O)C3C4CCC(C4=C(C)C)C3C2=O)cc1` (stereo not drawn), the “hERG current change (%, negative = inhibition) at 1uM” value is listed as 2.63%.

For the compound `CCOc1cccc2cc(C(=O)NCCC3=CCCCC3)c(=O)oc12`, the “hERG current change (%, negative = inhibition) at 1uM” value is 7.13%.

Consider `CCOC(=O)C1CCCN(C(=O)c2ccc([N+](=O)[O-])cc2)C1` (stereo not drawn), for which the “hERG current change (%, negative = inhibition) at 1uM” value is recorded as -3.93%.

In the case of `COc1ccccc1NC(=O)CN1C(=O)CCS(=O)(=O)c2ccccc21`, the “hERG current change (%, negative = inhibition) at 1uM” value was 3.22%.

For the compound `COc1ccc(NC(=O)COc2ccc(C)cc2)c([N+](=O)[O-])c1`, the “hERG current change (%, negative = inhibition) at 1uM” value was determined as 8.91%.

In the case of `CC(=O)c1ccc(S(=O)(=O)N2CCN(c3nc4c(C)c(C)ccc4cc3C#N)CC2)cc1`, the “hERG current change (%, negative = inhibition) at 1uM” value was determined as 1.48%.

With `COCCCNC(=O)CCCCCNS(=O)(=O)c1ccc(Br)cc1`, the “hERG current change (%, negative = inhibition) at 1uM” value is -5.74%.

On to `COc1ccccc1-n1c(SCC(=O)Nc2cc(C)on2)nc2c(c1=O)SCC2`, for which the “hERG current change (%, negative = inhibition) at 1uM” value is recorded as 4.66%.

Take `CCOC(=O)Cc1csc(NC(=O)COc2ccc(N(C)S(=O)(=O)c3ccc(C)cc3)cc2)n1`: the “hERG current change (%, negative = inhibition) at 1uM” value is given as -5.32%.

Regarding `CC(=O)N1CCCc2cc(S(=O)(=O)N(CC(C)C)CC(C)C)ccc21`, the “hERG current change (%, negative = inhibition) at 1uM” value is reported as -9.33%.

`O=C(O)c1cnc(-c2ccccc2)nc1Sc1ccccc1Cl`: the “hERG current change (%, negative = inhibition) at 1uM” value is reported as 8.64%.

For the compound `Cc1ccc(-c2noc(-c3ccccc3C(=O)NCc3ccco3)n2)cc1`, the “hERG current change (%, negative = inhibition) at 1uM” value is recorded as -0.593%.

On to `CCOc1ccc(C(C)NC(=O)c2ccc3c(c2)NC(=O)C(C)S3)cc1OCC` (stereo not drawn), for which the “hERG current change (%, negative = inhibition) at 1uM” value was 11.2%.

Regarding `CC(C)C(C(=O)NC(C)(C)C)N(CCN1CCOCC1)C(=O)CNS(=O)(=O)c1ccccc1` (stereo not drawn), the “hERG current change (%, negative = inhibition) at 1uM” value is given as 1.36%.

In the case of `CCn1c(=O)n(CC)c2cc(N3CCCC3)c(NC(=O)c3ccccc3Br)cc21`, the “hERG current change (%, negative = inhibition) at 1uM” value is recorded as 10.3%.

Take `Cc1cc(C)cc(NC(=O)/C=C/c2ccc([N+](=O)[O-])s2)c1`: the “hERG current change (%, negative = inhibition) at 1uM” value is on record as 9.55%.

In the case of `O=C(c1ccccc1F)N1CCN(c2ccccc2)CC1`, the “hERG current change (%, negative = inhibition) at 1uM” value came out at 3.59%.

Turning to `COc1ccccc1NS(=O)(=O)c1ccc(C(=O)N2CC(C)OC(C)C2)cc1` (stereo not drawn), the “hERG current change (%, negative = inhibition) at 1uM” value came out at 15.6%.

`CCOC(=O)/C(C(N)=NCCCO)=C(/O)c1ccccc1`: the “hERG current change (%, negative = inhibition) at 1uM” value is -0.697%.

Regarding `O=C(CCCO)c1ccc2c(c1)OCCO2`, the “hERG current change (%, negative = inhibition) at 1uM” value is on record as 12.1%.

On to `O=C(N/N=C/c1ccco1)c1ccc2nc[nH]c2c1`, for which the “hERG current change (%, negative = inhibition) at 1uM” value is given as 16.7%.
